From PubChem BioAssay AID624417 (National Center for Advancing Translational Sciences (NCATS), 2012)
Screen size: about 410,000 compounds; about 6,400 (1.6%) were called active. Inconclusive means that the source gave no clear call. Such entries were picked first, then a sample of the others. Calls follow the shape of the dose curve; as a rule, active = well fitted inhibition curve with a large enough effect; inconclusive = small, poorly fitted or top-dose-only effect; inactive = no such curve, though single readings can be large or run the other way. Potencies of inconclusive entries are doubtful fits and often do not repeat.

What follows are compounds tested against Glucagon-like peptide 1 receptor (Homo sapiens) (UniProt P43220) (assay: qHTS of GLP-1 Receptor Inverse Agonists (Inhibition Mode)). Details: HEK293 GLP-1R CRE-luciferase, luminescence, 24 h, GLP-1R form is constitutively active; series mostly up to 38.3 µM.
Sequence of UniProt P43220 (P43220 whole entry, looked up): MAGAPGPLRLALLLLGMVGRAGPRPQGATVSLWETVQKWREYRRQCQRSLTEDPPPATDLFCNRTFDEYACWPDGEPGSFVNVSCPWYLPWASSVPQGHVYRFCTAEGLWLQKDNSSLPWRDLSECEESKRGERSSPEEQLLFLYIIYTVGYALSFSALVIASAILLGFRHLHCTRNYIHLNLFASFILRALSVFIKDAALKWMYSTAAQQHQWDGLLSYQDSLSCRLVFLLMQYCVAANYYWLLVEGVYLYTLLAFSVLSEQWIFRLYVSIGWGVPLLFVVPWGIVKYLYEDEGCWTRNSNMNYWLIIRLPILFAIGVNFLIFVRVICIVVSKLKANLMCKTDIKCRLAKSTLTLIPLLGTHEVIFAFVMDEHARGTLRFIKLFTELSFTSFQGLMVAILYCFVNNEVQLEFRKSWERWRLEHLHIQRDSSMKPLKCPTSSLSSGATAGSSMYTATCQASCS
Outline: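 Assay principle: reduced luminescence from a cAMP-responsive reporter in HEK293 cells co-expressing a constitutively active GLP-1R. Conditions: 24 hr compound incubation, 37 deg C, 5% CO2.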
Also: nearly all actives have a fitted effect of over 55% in size.
Potency is read from the fitted curve at half-maximal effect; tags tell the direction and shape of the fitted curve.

Potency, inactive:
COc1ccc(NC(=O)Cn2nnc3sc4c(c3c2=O)CCCC4)cc1, COc1ccc(OCCC(=O)Nc2nccs2)cc1, C[C@H]1CN([C@@H](C)CO)C(=O)CCCn2nncc2CO[C@@H]1CN(C)S(=O)(=O)c1cccc(C#N)c1, O=C(CSc1nnc(-c2ccco2)n1CC1CCCO1)c1ccc(F)cc1 (stereo not given), O=S(=O)(Nc1ccc(F)cc1F)c1ccc(-n2cccn2)cc1, O=C1C(Cl)=C(NCC2CCCO2)C(=O)N1CCc1ccccc1 (stereo not given), CC(=O)c1ccc(NC(=O)Cn2c(=O)nc(-c3ccccc3)c3cc(Cl)ccc32)cc1

Potency, inconclusive:
O=C(NCCC1=CCCCC1)C1CCCN(S(=O)(=O)c2ccccc2)C1 (stereo not given) 7.94 µM [inhibitor, partial curve, poor fit], O=C(CSc1nnc(Cc2ccccc2)n1Cc1ccco1)NC12CC3CC(CC(C3)C1)C2 11.2 µM [inhibitor, single point], CN(NC(=O)c1ccc(Cl)cc1)c1nc(-c2ccccc2)nnc1C(F)(F)F 11.2 µM [inhibitor, partial curve], Cc1ccc(C(=O)N/N=C/c2cc(Br)ccc2O)cn1 1.58 µM [inhibitor, full curve, poor fit], COc1cccc(C(=O)N2CCN(Cc3cc(Br)ccc3OC)CC2)c1 14.1 µM [inhibitor, partial curve, poor fit], CCOc1ccccc1N(CC(=O)NC(C)(C)C)C(=O)Cn1nnc(-c2ccc(C)o2)n1 28.2 µM [inhibitor, single point], CC1(C)CC(=O)C2=C(C1)Oc1nc3ccccc3cc1C2C(C#N)C#N (stereo not given) 6.31 µM [inhibitor, partial curve], Cc1cc2c(NCc3ccccc3)ncnc2s1 28.2 µM [inhibitor, single point], COc1cc(C(=O)N(C)CC2CCN(CCc3cccc(C(F)(F)F)c3)CC2)ccc1C 6.31 µM [inhibitor, partial curve, poor fit], COc1ccc(-c2ccc([C@H]3[C@@H]4C=CCC[C@@]4(C)C(=O)N3Cc3ccccc3)c(F)c2)cc1OC 28.2 µM [inhibitor, single point], CCC(CC)COC(=O)C1=C(C)NC(=O)NC1c1ccc(N(C)C)cc1 (stereo not given) 28.2 µM [inhibitor, single point], Clc1ccc(-c2noc(CSc3nnc(Cc4cccs4)n3-c3ccccc3)n2)cc1 11.2 µM [inhibitor, partial curve, poor fit], Cc1cccc(C(=O)NCC(=O)N2CCN(S(=O)(=O)c3cc(C)ccc3C)CC2)c1 10 µM [inhibitor, partial curve, poor fit], Cc1oc(-c2ccccc2F)nc1CS(=O)(=O)CC(=O)NC1CCCC(C)C1C (stereo not given) 20 µM [inhibitor, single point], CC1(c2ccc(Cl)cc2)NC(=O)N(CC(=O)Nc2ccc3c(c2)OCO3)C1=O (stereo not given) 11.2 µM [inhibitor, single point], CC(C#N)Sc1ccc(S(=O)(=O)N(C)C2CCCCC2)cn1 (stereo not given) 10 µM [inhibitor, single point], CC(C)Cn1c(N)c(C(=O)COC(=O)/C=C/c2ccccc2)c(=O)n(C)c1=O 14.1 µM [inhibitor, single point], Cc1cccc(N2CCN(C(=O)C3CCN(c4ncnc5c4nc4n5CCCCC4)CC3)CC2)c1C 8.91 µM [inhibitor, partial curve, poor fit], Nc1nc2cc(Cl)ccc2cc1C(=O)NCCCc1ccccc1 12.6 µM [inhibitor, single point], CC(C)[C@H](NC(=O)OCc1ccccc1)C(=O)OCC(=O)c1ccccc1 10 µM [inhibitor, partial curve, poor fit], CSCCC(NC(=O)/C(=C/c1ccco1)NC(=O)c1ccco1)C(=O)O (stereo not given) 28.2 µM [inhibitor, single point], COc1ccc(CNn2c(-c3cccc(C)c3)nc3ccccc3c2=O)cc1OC 28.2 µM [inhibitor, single point], Cc1ccc(-c2nc(CS(=O)(=O)CC(=O)NCCN3CCCC3)c(C)o2)cc1 8.91 µM [inhibitor, partial curve, poor fit], Cc1cccc(C(=O)Nc2ccc(S(=O)(=O)N(Cc3ccccc3)c3ccccc3)cc2)c1 10 µM [inhibitor, partial curve, poor fit], Cc1ccsc1/C=N/N=C/c1sccc1C 10 µM [inhibitor, partial curve, poor fit], CCCC/C(O)=C1\C(=O)CCCC1=NCCc1c(C)[nH]c2ccc(OC)cc12 3.98 µM [inhibitor, partial curve, poor fit], COc1ccccc1NC(=O)/C(=C/c1cccc([N+](=O)[O-])c1)c1ccccc1 22.4 µM [inhibitor, partial curve, poor fit], CC1=Nc2cc(C(=O)NCCN3CCOCC3)ccc2Sc2c(C)ccc(C)c21 5.62 µM [inhibitor, partial curve], C=C1c2cc3c(cc2NC(=S)N1Cc1ccccc1)OCO3 8.91 µM [inhibitor, partial curve, poor fit]

Potency, active:
O=C(Nc1cccc2ccccc12)OC1C=CS(=O)(=O)C1 (stereo not given) 10 µM, O=C(OCc1ccccc1)N(CCF)c1cn(Cc2ccccc2)c(=O)n(Cc2ccccc2)c1=O 10 µM, O=C1CC(O)(c2ccccc2)C(c2ccccc2)=C1c1ccccc1 (stereo not given) 10 µM, Cc1cc(C)c(S(=O)(=O)Nc2ccc(-c3ccc(N4CCCCCC4)nn3)cc2)cc1C 12.6 µM
